Laboratory results reported in PMC4336329 (PLoS ONE, 2015).
The whole screen tested about 310,000 compounds, of which about 14,000 (4.5%) showed an effect of 50% or more. The effect is printed as a negative number. This is one part of the list.
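Further: peak tail current of the secondary pulse compared with the same well before compound.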

The compounds below were run against human ether-à-go-go-related gene (hERG) potassium channel (human, UniProt Q12809) (assay: primary screen, population patch clamp on CHO cells stably expressing hERG).
human ether-à-go-go-related gene (hERG) potassium channel, sequence (Q12809 whole entry, looked up): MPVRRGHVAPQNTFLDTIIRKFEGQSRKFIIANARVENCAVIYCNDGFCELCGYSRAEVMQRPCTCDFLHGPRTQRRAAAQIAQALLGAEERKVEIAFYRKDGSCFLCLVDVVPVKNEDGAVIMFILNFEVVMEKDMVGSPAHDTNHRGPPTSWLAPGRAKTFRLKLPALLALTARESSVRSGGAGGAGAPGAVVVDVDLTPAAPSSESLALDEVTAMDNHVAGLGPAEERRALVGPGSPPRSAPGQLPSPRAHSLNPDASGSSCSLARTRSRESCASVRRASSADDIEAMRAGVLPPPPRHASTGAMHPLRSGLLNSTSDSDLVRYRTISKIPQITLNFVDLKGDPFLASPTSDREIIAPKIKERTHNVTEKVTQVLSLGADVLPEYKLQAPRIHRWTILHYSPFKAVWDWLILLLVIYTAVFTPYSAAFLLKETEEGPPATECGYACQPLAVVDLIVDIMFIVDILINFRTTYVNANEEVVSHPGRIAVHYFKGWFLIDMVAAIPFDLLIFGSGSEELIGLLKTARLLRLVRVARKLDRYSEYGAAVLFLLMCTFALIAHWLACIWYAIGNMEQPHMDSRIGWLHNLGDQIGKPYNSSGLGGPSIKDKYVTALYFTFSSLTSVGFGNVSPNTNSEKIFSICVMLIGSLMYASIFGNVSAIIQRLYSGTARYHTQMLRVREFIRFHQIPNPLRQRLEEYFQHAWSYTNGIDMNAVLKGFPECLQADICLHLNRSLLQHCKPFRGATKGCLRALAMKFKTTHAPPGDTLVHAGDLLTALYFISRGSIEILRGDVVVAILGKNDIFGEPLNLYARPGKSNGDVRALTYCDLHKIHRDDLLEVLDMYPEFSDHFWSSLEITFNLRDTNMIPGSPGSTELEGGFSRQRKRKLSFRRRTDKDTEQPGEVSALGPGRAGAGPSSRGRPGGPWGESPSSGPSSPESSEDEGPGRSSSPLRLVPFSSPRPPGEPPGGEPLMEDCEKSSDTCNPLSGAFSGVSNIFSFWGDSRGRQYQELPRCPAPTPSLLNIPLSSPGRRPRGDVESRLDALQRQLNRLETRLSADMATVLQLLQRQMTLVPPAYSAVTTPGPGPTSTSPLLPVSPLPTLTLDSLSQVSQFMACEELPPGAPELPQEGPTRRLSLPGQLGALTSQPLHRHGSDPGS
In the case of `O=C(OCc1nc2ccc(Cl)cc2n1CCO)c1ccc2c(c1)OCO2`, the “hERG current change (%, negative = inhibition) at 10uM” value was -7.34%. With `O=c1[nH]c(C2C3CC4CC(C3)CC2C4)nc2ccccc12` (stereo not shown) the “hERG current change (%, negative = inhibition) at 10uM” value was 17.2%. With `CC1CN(S(=O)(=O)c2cccc3nsnc23)CC(C)O1` (stereo not shown) the “hERG current change (%, negative = inhibition) at 10uM” value was 2.56%. In the case of `O=C(OCC(=O)N1CCN(c2ccccc2)CC1)c1ccc[n+]([O-])c1`, the “hERG current change (%, negative = inhibition) at 10uM” value was 7.34%. For `CCN(CC)S(=O)(=O)c1cccc2cccnc12`, the “hERG current change (%, negative = inhibition) at 10uM” value was -1.48%. With `CC(=O)/C(N=Nc1cc2c(c([N+](=O)[O-])c1C)C(C)(C)CC2(C)C)=C(\C)O` the “hERG current change (%, negative = inhibition) at 10uM” value was 9.64%. For `O=C(CSc1ncccn1)Nc1ccccc1`, the “hERG current change (%, negative = inhibition) at 10uM” value was 3.55%. In the case of `CSc1nnc(-c2ccc(Br)s2)n1C`, the “hERG current change (%, negative = inhibition) at 10uM” value was 1.98%. With `CCN1C(=O)N(C)C(N(O)C(=O)NC)C1(C)C` (stereo not shown) the “hERG current change (%, negative = inhibition) at 10uM” value was -2.48%. In the case of `CCOC(=O)c1cc(C)n(Cc2ccccc2)c1C`, the “hERG current change (%, negative = inhibition) at 10uM” value was 1.15%. `O=C(N/N=C/C1CC2CCC1C2)C1CC1` (stereo not shown) was tested, and the “hERG current change (%, negative = inhibition) at 10uM” value was 30.8%. With `Cc1nc(-c2ccccc2)nn1-c1ccc([N+](=O)[O-])cc1` the “hERG current change (%, negative = inhibition) at 10uM” value was -26.2%. For `Cc1noc(C)c1CSCC(=O)Nc1cc(S(=O)(=O)N2CCOCC2)ccc1OC(C)C`, the “hERG current change (%, negative = inhibition) at 10uM” value was -35.2%. With `Cc1ccsc1C(=O)OCC(=O)N(C)c1c(N)n(Cc2ccccc2)c(=O)[nH]c1=O` the “hERG current change (%, negative = inhibition) at 10uM” value was 27.7%. `Cc1ccc(C(=O)N/C(=C\c2cccs2)C(=O)N2CCCCCC2)cc1` was tested, and the “hERG current change (%, negative = inhibition) at 10uM” value was -50.7%. In the case of `COc1ccc(C(=O)NCC(=O)Nc2ccccc2)cc1OC`, the “hERG current change (%, negative = inhibition) at 10uM” value was 17.8%. `COc1ccc(OC)c2[nH]c(=O)c(CCNS(=O)(=O)c3ccc(C)cc3)cc12` was tested, and the “hERG current change (%, negative = inhibition) at 10uM” value was -27.1%. In the case of `CC1(OC(=O)CCc2ccccc2)C(=O)C=C2C=C(c3ccc(C#N)cc3)N(CC3CC3)C=C2C1=O` (stereo not shown), the “hERG current change (%, negative = inhibition) at 10uM” value was -44.6%. In the case of `O=C(O)c1ccc(-c2nnc(-c3cccc(Br)c3)o2)cc1`, the “hERG current change (%, negative = inhibition) at 10uM” value was 4.71%. For `O=P(N[C@@H](c1ccccc1)[C@@H]1C[C@H]1CO)(c1ccccc1)c1ccccc1`, the “hERG current change (%, negative = inhibition) at 10uM” value was 3.95%. For `Cc1cccc(C(=O)NCCC(=O)Nc2ccc(C#N)cc2)c1`, the “hERG current change (%, negative = inhibition) at 10uM” value was -0.169%. In the case of `O=C(CC1C(=O)NCCN1CC1CCCCC1)NCc1ccc(F)cc1` (stereo not shown), the “hERG current change (%, negative = inhibition) at 10uM” value was -20.3%. With `Cc1cc(N2CCN(C(=O)/C=C/C(=O)O)CC2)c2ccccc2n1` the “hERG current change (%, negative = inhibition) at 10uM” value was 32.4%. In the case of `CCN(CC)S(=O)(=O)c1ccc(N2CCN(S(=O)(=O)c3ccccc3C#N)CC2)nc1`, the “hERG current change (%, negative = inhibition) at 10uM” value was -9.83%. For `Oc1cc(Cl)ccc1Oc1ccc(Cl)cc1Cl`, the “hERG current change (%, negative = inhibition) at 10uM” value was 1.85%.
